Each structure is given as a SMILES string. Hit rate of the full screen: of about 110,000 compounds, about 230 (0.21%) showed an effect of 50% or more. This is one part of the list.
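Further: 30 min substrate incubation versus DMSO and 10 µM JCP410 controls.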

Chain of DPAP1 (Q8IIJ9 whole entry, looked up): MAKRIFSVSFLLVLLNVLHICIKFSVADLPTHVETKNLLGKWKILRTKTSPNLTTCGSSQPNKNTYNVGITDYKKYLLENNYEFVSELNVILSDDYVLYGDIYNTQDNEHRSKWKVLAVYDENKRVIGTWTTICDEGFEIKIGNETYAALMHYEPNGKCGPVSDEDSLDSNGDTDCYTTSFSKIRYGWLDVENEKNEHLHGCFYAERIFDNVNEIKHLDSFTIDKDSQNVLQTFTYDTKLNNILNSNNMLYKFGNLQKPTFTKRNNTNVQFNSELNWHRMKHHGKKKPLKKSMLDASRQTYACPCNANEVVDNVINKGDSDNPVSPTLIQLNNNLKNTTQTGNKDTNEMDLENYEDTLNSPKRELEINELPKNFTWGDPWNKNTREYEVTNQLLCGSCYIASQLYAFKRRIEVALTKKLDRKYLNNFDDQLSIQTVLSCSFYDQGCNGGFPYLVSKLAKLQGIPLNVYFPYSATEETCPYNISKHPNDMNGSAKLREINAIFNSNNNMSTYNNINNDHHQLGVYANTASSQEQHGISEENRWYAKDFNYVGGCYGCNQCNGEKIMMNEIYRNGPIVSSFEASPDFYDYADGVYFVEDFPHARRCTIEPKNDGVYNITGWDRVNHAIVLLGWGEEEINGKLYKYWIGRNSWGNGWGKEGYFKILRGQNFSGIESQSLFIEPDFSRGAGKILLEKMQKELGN

The test has as its target DPAP1 (Plasmodium falciparum, UniProt Q8IIJ9). Nature of the test: primary screen, percent inhibition; read by cleavage of a fluorogenic dipeptide substrate; higher = more effect of the substance. Also on record: species or system P. falciparum D10 trophozoite lysates; single well.
For `COc1ccc(CCNC(=O)c2ccc(CSc3nc4ccncc4[nH]3)cc2)cc1OC`, the “% Inhibition @ 10 uM” value amounted to 3.4%.
As to `CCN(CC)CCNC1CCN(CCc2ccccc2)CC1`, the “% Inhibition @ 10 uM” value is recorded as -3.8%.
The value for `CC(C)C(=O)N1CCN(c2ccc(NC(=O)c3ccc(Br)o3)cc2)CC1` was -0.519%; that for `Fc1ccc(N2CCN(CCc3ccccc3)CC2)cc1` was 1.74%; that for `CCOc1ccccc1C1Nc2ccccc2N=C2CC(C)(C)CC(O)=C21` (stereo not shown) was 0.687%.
Consider `Fc1ccc(CSc2ccc(-c3cccs3)nn2)cc1`, for which the “% Inhibition @ 10 uM” value was found to be 1.68%.
The result for `Cc1nc2ccccc2nc1Sc1ccccc1` reads -1.17%; that for `CC(C)NS(=O)(=O)c1ccc(OCC(=O)Nc2ccc(Br)cc2F)cc1`, 5.66%; that for `CCOC(=O)N1CCN(C(C)Cc2ccccc2F)CC1` (stereo not shown), 0.472%.
As for `Cc1ccccc1OCCCN1CCOCC1`, the “% Inhibition @ 10 uM” value is listed as 2.13%.
For the compound `O=C1CCCc2c1nc(-c1cccc([N+](=O)[O-])c1)n2O`, the “% Inhibition @ 10 uM” value came to 0.247%.
For the compound `CC(c1ccccc1)N1CC(C(=O)NC2CCCC2)CC1=O` (stereo not shown), the “% Inhibition @ 10 uM” value is reported as -1.21%.
With `O=C(c1n[nH]cc1[N+](=O)[O-])N1CCOCC1`, the “% Inhibition @ 10 uM” value amounted to 5.77%.
With `CC1CCN(S(=O)(=O)c2ccc(Cl)cc2)CC1`, the “% Inhibition @ 10 uM” value is -4.4%.
Take `COc1cc(OC)c([N+](=O)[O-])nc1OC`: the “% Inhibition @ 10 uM” value turned out to be 4.22%.
For the compound `COC(=O)c1sc2nc(C)c([N+](=O)[O-])c(C)c2c1N`, the “% Inhibition @ 10 uM” value is on record as 0.51%.
As for `Cc1cc(C(=O)NCCN2CCOCC2)c2c(C)nn(-c3cccc(Cl)c3C)c2n1`, the “% Inhibition @ 10 uM” value was found to be 1.5%.
The result for `CCCC(C)C1(CC)C(=O)N=C(Nc2ccccc2C)NC1=O` (stereo not shown) reads 5.39%; that for `Cc1ccccc1OCc1nn2c(-c3cccc(Cl)c3)nnc2s1`, 6.01%.
Take `CCC(NC(=O)NCCc1ccccc1)(C(F)(F)F)C(F)(F)F`: the “% Inhibition @ 10 uM” value is reported as -6.84%.
In the case of `OCC1CCCN(Cc2ccc(F)c(F)c2)C1` (stereo not shown), the “% Inhibition @ 10 uM” value is given as -1.5%.
For `Cc1cc2c(cc1C)NC(c1ccsc1)C1=C(O)CC(C)(C)CC1=N2` (stereo not shown), the “% Inhibition @ 10 uM” value was 2.46%.
Regarding `COc1cccc2cc(C(=O)O)c(=O)oc12`, the “% Inhibition @ 10 uM” value was -11.5%.
As for `COc1ccc(C(=O)N2CCN(Cc3ccc(C)cc3)CC2)cc1OC`, the “% Inhibition @ 10 uM” value was -1.11%.
In the case of `CCN(CC)C(=O)Cn1nnc(-c2cc(OC)c(OC)c(OC)c2)n1`, the “% Inhibition @ 10 uM” value is recorded as 0.9%.
Regarding `O=C(c1ccccc1)c1ccccc1C(=O)N1CCOCC1`, the “% Inhibition @ 10 uM” value is given as -2.39%.
Regarding `C=C(C)CN(CC)C1CCN(CCC)CC1`, the “% Inhibition @ 10 uM” value is -4.14%.
As for `CCOc1cc(C2C(C#N)=C(N)Oc3cc4c(cc32)OCO4)ccc1OCc1cccc(F)c1` (stereo not shown), the “% Inhibition @ 10 uM” value turned out to be 0.565%.
`CN(C)c1ccc(CN2CCN(c3cccc(Cl)c3)CC2)cc1`: the “% Inhibition @ 10 uM” value was 3.8%.
The value for `COc1ccc(OCCCCN2CCOCC2)cc1` was -3.94%.
On to `COc1ccc(/C=C/C(=O)O)cc1S(=O)(=O)NCc1cccnc1`, for which the “% Inhibition @ 10 uM” value is given as 0.147%.

The values are drawn from article PMC6919601, “Identification of Plasmodium dipeptidyl aminopeptidase allosteric inhibitors by high throughput screening” (PLoS ONE, 2019).
